{"source": "the supplement of paper PMC10338343", "note": "± gives the standard deviation. The list shows a part of the results, in another mix than the full data.", "data": [{"test_system": "MIWI (PIWIL1) piRISC loaded with piRNA #1 (30 nt)", "experiment": "pre-steady-state target cleavage rate (min^-1); MIWI and MILI are mouse PIWI proteins and EfPiwi is from a freshwater sponge; tags in brackets are library labels; higher = faster piRNA-guided slicing of the target", "details": "guide: piRNA #1 5'p-UGAGGUAGUAGGUUGUAUAGUAUCCAGAGG; auxiliary factor: 500 nM mouse GTSF1", "in_short": "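Cleave-'n-Seq: 1 nM active affinity-purified piRISC with one synthetic guide and 0.1 nM transcribed, DNA-blocked target RNA library were mixed, with or without 500 nM GTSF1 partner protein, in HEPES–potassium acetate buffer at 33 °C for 0–8 or 0–960 min. Uncleaved targets were sequenced and normalised to depth and to weakly complementary targets, three trials were pooled, and k3 was capped at 0.0001 min^-1. The pre-steady-state cleavage rate was fitted […].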", "values": [{"sequence": "GGAGACCAUACUAUACAACCUACUUCCUCA", "pre-steady-state target cleavage rate": "0.666 ± 0.054"}, {"sequence": "GGAGACCUUACUAUAGUACCUACUACCUCA", "pre-steady-state target cleavage rate": "0.185 ± 0.029"}, {"sequence": "GCUCUGGAUACUAUAGAACCUACUACCUCA", "pre-steady-state target cleavage rate": "0.644 ± 0.057"}, {"sequence": "GGUCUGGAUACUAUACAACCUACUACUUCA", "pre-steady-state target cleavage rate": "1.32 ± 0.095"}, {"sequence": "CCUCUCGAUACUAUAGAACCUACUACCUCA", "pre-steady-state target cleavage rate": "0.39 ± 0.043"}, {"sequence": "GGUCUGGUUACUAUAGAACCUACUACCUCA", "pre-steady-state target cleavage rate": "0.924 ± 0.067"}, {"sequence": "CCUCUGGAUACUAUAUAACCUACUACCUCA", "pre-steady-state target cleavage rate": "2.07 ± 0.12"}, {"sequence": "GGAGACCUUACAAUACAACCUACUAGCUCA", "pre-steady-state target cleavage rate": "0.157 ± 0.029"}, {"sequence": "GGACUGGAUAGUAUACAAGCUACUACCUCA", "pre-steady-state target cleavage rate": "0.313 ± 0.037"}, {"sequence": "CCUCUGGUUACUAUACAACCUACUAGCUCA", "pre-steady-state target cleavage rate": "0.705 ± 0.055"}, {"sequence": "GCUCUGGAUACAAUACAACCUACUAGCUCA", "pre-steady-state target cleavage rate": "0.985 ± 0.087"}, {"sequence": "GGAGACGAUACUAUACAACCUACUACCUCA [g2:g24:cont:t1A]", "pre-steady-state target cleavage rate": "1.77 ± 0.11"}, {"sequence": "GGAGACGAAACUAUACAACCAACUACCUCA", "pre-steady-state target cleavage rate": "0.0629 ± 0.0094"}, {"sequence": "GGAGACCUAUGUAUACAACCUACUACGUCA", "pre-steady-state target cleavage rate": "0.0939 ± 0.015"}, {"sequence": "GGAGACCUAUGAUAUGUUGCAACUUCCUCA", "pre-steady-state target cleavage rate": "< 0.0001"}, {"sequence": "GGAGACCUAACUAUUCAACCUAGUACCUCA", "pre-steady-state target cleavage rate": "0.154 ± 0.026"}, {"sequence": "GCUCUCGAUACUAUACAACCUACUACCACA", "pre-steady-state target cleavage rate": "2.17 ± 0.15"}, {"sequence": "CCUCUAGAUACUAUACAACCUACUACCUCA", "pre-steady-state target cleavage rate": "2.2 ± 0.13"}, {"sequence": "GGACUCGUUACUAUACAACCUACUACCUCA", "pre-steady-state target cleavage rate": "1.42 ± 0.13"}, {"sequence": "GGAGACCAUACUAUACAACCUACUAGCUCA", "pre-steady-state target cleavage rate": "0.708 ± 0.058"}, {"sequence": "CCUCUGGAUGCUAUACAACCUACUACCUCA", "pre-steady-state target cleavage rate": "2 ± 0.13"}, {"sequence": "GGAGACCAUACUAUACAACCUACUACCAGA", "pre-steady-state target cleavage rate": "0.907 ± 0.073"}, {"sequence": "CCUCUGGAAACUAUACAACGUACUACCUCA", "pre-steady-state target cleavage rate": "1.03 ± 0.059"}, {"sequence": "CCUCUGGAUAGUAAACAACCUACUACCUCA", "pre-steady-state target cleavage rate": "0.207 ± 0.031"}, {"sequence": "GGAGACCUUACUUUACAAGCUACUACCUCA", "pre-steady-state target cleavage rate": "0.553 ± 0.039"}, {"sequence": "GGACUGGAUACUAUACAACCUACAUACCUCA", "pre-steady-state target cleavage rate": "0.799 ± 0.079"}, {"sequence": "GGAGACCAUACUAUACAUCCUACUACGUCA", "pre-steady-state target cleavage rate": "0.534 ± 0.048"}, {"sequence": "GGAGACCACACUAUACAACCUACUACCUCA", "pre-steady-state target cleavage rate": "1.36 ± 0.1"}, {"sequence": "GGAGACCUUACUAUACAACCAACUAGCUCA", "pre-steady-state target cleavage rate": "0.0315 ± 0.0059"}, {"sequence": "GGAGACCUAUCUCAUACAACCUACUACCUCA", "pre-steady-state target cleavage rate": "0.086 ± 0.018"}, {"sequence": "GGACUGGAAACUAAACAACCUACUACCUCA", "pre-steady-state target cleavage rate": "0.844 ± 0.099"}, {"sequence": "CCUCUCGGAUACUAUACAACCUACUACCUCA", "pre-steady-state target cleavage rate": "2.06 ± 0.15"}, {"sequence": "GGAGUGGAUACUAUAUAACCUACUACCUCA", "pre-steady-state target cleavage rate": "1.77 ± 0.092"}, {"sequence": "GGUCUCCAUACUAUACAACCUACUACCUCA", "pre-steady-state target cleavage rate": "1.79 ± 0.1"}, {"sequence": "GGACUGGAUACUAUACUACCUACUAGCUCA", "pre-steady-state target cleavage rate": "0.234 ± 0.037"}, {"sequence": "GGACAGGAAACUAUACAACCUACUACCUCA", "pre-steady-state target cleavage rate": "1.69 ± 0.096"}, {"sequence": "GGACUGGAUACUCAUACAACCUACUACCUCA", "pre-steady-state target cleavage rate": "1.2 ± 0.096"}, {"sequence": "GGUCUGGAUACUAUACAACCUACUACCUACA", "pre-steady-state target cleavage rate": "0.849 ± 0.069"}, {"sequence": "GCUCUGGAAACUAUACAACGUACUACCUCA", "pre-steady-state target cleavage rate": "1.26 ± 0.095"}, {"sequence": "GGAGACCUAUCAAUACAACCUUCUACCUCA", "pre-steady-state target cleavage rate": "0.00538 ± 0.0027"}]}]}
